Consider 35 molecules from patent US12551573B2, “Compositions and methods for the targeting of PCSK9” (Scribe Therapeutics Inc., priority 2022, dated 2026).

To fix the notation:
B1: DOMAIN_17139 (protein)
chain: PQKSVTFEDVAVYFTQTEWDGLSPAQRALYRDVMLENYGNVASLGFSLLKPAVISQLEGAGELEGPSPLVAGTEIGPQGLW
modifications: Ursus arctos
B2: DOMAIN_17177 (protein, listed as Physeter macrocephalus)
chain: VQESVTFKDVAVLFTQDEWAQLSPAQRALYRDVMLENYSNLVSLGLLGPKPDVFSQLGKGEEWMPEDSLGGFCLDWMTTPV
B3: DOMAIN_17383 (protein, listed as Leptonychotes weddellii)
chain: PQESVTFKDIAVDFTQEEWALLDTSQRKLYRDVMLENISHLVSVGYHLCKSDVISQLEQGVELWREGRGFPQGLNPDRKSG
B4: DOMAIN_17202 (protein)
chain: TQGSLSFRDVTVGFTQEEWQHLDPAQRSLYRDVMLENYSHLVSLGYSISKPEVILKLEQGEEPWILEEEFPSQSDLELIKS
modifications: Ursus arctos
B5: DOMAIN_17574 (protein)
chain: MAQVTFSDVAIDFSHEEWAWLDSAQRDLYKDVMVQNYENLVSVGLSVTKPYVITLLEDGKEPWMVEKKLSKGMIPDWESRW
modifications: Cercocebus atys
B6: DOMAIN_17421 (protein)
chain: AQESVMFSDVSIDFSQEEWECLNDDQRDLYRDVMLENYSHLVSMGHSVSKPDVISFLEQGKEPWLVDRELTRDQWPVLESR
modifications: Vulpes vulpes
B7: DOMAIN_17278 (protein, listed as Tursiops truncatus)
chain: SKAPVTFGDLAIYFSQEEWEWLSPIQKDLYEDVMLENYQNLVSLGLSFRRPNVITLLEKGKAPWMVEPVKRRRGLDLGSKC
B8: DOMAIN_17108 (protein)
chain: MAASQESLTFKDVSVDFSLEEWECLDPAQRKLYSDVMLENYSNLVSLGLVVSKPGLVTFLEQMQEVWDVSRKKSISTPPGR
modifications: Phyllostomus discolor
B9: DOMAIN_17333 (protein, listed as Camelus dromedarius)
chain: AQETVTFKDVAVDFTQEEWGQLDPVQRTLYRDVMLETYGHLLSVGNQIAKPEVISLLEQGEEPWSMDRVYPPQRTCPEWMR
B10: DOMAIN_17340 (protein, listed as Leptonychotes weddellii)
chain: ARASLSFEDVAVGFSWEEWQLLAPSQKDLYREVMLENYRNLVSVGYQASKPDSLFHLEQGEPPWTVVGAAQSQTCQEIWEI
B11: DOMAIN_17704 (protein, listed as Neomonachus schauinslandi)
chain: B10 chain with H56Q, I78E, W79I, E80W, I81E
B12: DOMAIN_17062 (protein, listed as Rhinopithecus roxellana)
chain: VHGSVTFRDVAIDFSQEEWECLQPEQRTLYRDVMLENYSHLISLGSSISKPDVITLLEQEKEPWMVVRKETSRWYPDLESK
B13: DOMAIN_17105 (protein, listed as Macaca mulatta)
chain: B12 chain with E25D, T28N, M65I
B14: DOMAIN_17752 (protein, listed as Leptonychotes weddellii)
chain: SQEPVTFEDVAVYFTQNQWASLDPMQRALYLEVMLENYANITSLALPFPKPDLILQLEQGEAPWDLDPWTPLEGEALEGVH
B15: DOMAIN_17516 (protein, listed as Monodelphis domestica)
chain: SQGSITFKDVAVDFTQEEWCLLDHSQKALHLEVMLENVQNLLSVGLPVPRENFISCFQQGKAPYLLQQNDPKSSSPEAETN
B16: DOMAIN_17525 (protein, listed as Myotis davidii)
chain: SMGSDLFRDVAVVFSREEWERLAPAQRDLYRDVMLETYSHLRSLDLAISKPDVIAFLEQGEEPWRAEEAARDGLCPVDWEC
B17: DOMAIN_17241 (protein)
chain: MGRLMFQDVAIDFTQEEWECLDLSQRDLYRDVMLETYGNLASLGLVVSKPDLVTFLEQMKNPWDVRRTDTKATYPAVSSHN
modifications: Muntiacus muntjak
B18: DOMAIN_17717 (protein, listed as Physeter macrocephalus)
chain: AHVSLSFRDVAIDLSQEEWECLDPVQRALYRDVMLENYSNLVSLGCSSPKPDVITLLEQEKEPWTVMREGTRSWYTDLESK
B19: DOMAIN_17153 (protein)
chain: LLTFEDVAVSFSEEEWKLLDPSQKILYNDVMQENYETVISLGLKLKNDTGNDQPISLSALEIQASGGKVLRKARMKVAQKT
modifications: Ursus arctos
B20: DOMAIN_17671 (protein, listed as Monodelphis domestica)
chain: LQASVTFEDVAVDFSAEEWRRLRPLQRELYREVMLENYRSLAWLGLAASKPGVICRLERGEAPREPDPDGPQSGWADCGTG
B21: DOMAIN_17279 (protein)
chain: KPLAVRFADVAVYFSPEEWGYLRPAQRALYRDVMQETYGHLGALGFPGPKPALISWMEQESEAWSPAAQDPEEGENLGGAL
modifications: Bison bison
B22: DOMAIN_17748 (protein, listed as Leptonychotes weddellii)
chain: LQEAIVFEDVAVYFTRIEWSCLAPHQRALYRDVMLENYGHMASLGFLVAKPALISLLEQGEEPGALILQGTEEQGSTASLC
B23: DOMAIN_17483 (protein)
chain: MEGLVMFQDLFIDFSQEEWECLDTAQKDLYRDVMMENYSSLVSLGLCIPKPDVISLLEQGKEPWMVSRDVLGGWCPDSEFR
modifications: Cercocebus atys
B24: DOMAIN_17632 (protein, listed as Monodelphis domestica)
chain: PQAAMTFQDVAVDFTREEWRLLEPPQKELYWEVMLENYRNLVCLGLTVSKPDVISQLEQGEAPWRLEGGSARGRCLDWGMR
B25: DOMAIN_17662 (protein, listed as Monodelphis domestica)
chain: AQEAVTFKDVAVDFTREEWRLLSPPQKELYKEVMLENAQNLLTVGLPAPPENVISALGAEGSPVDARGRRPEGACCPGEII
B26: DOMAIN_17134 (protein, listed as Panthera pardus)
chain: AQESLTLEDVAVDFSREEWRLLAPAQKDLYRDVMLENFRNLVSVGHQASKPDVLAKLERGEEPWAIEEEVRSGTSPETGKV
B27: DOMAIN_17658 (protein, listed as Monodelphis domestica)
chain: PQELVTFQDVAVYFTPEEVRYLDSYQKALYKDVMLENYGNMASLGFPLSKPVLISQLERGEEPWAMDPLVAKERKTRRGTS
B28: DOMAIN_17412 (protein)
chain: SQSPLTFGDVAVEFSGEEWAWLDSAQRSLHRSVMLENYRNLASLGLCLSKPEMISSLEQRKEPWAVKRKSTGGECADSQTL
modifications: Ovis aries
B29: DOMAIN_17547 (protein, listed as Neomonachus schauinslandi)
chain: FEESVTFEDVAVYFSENEWTGLAPAQRVLYRDVMLENYGAVASLAFPFPKPALISQLERGEAPWCKAPQGALDGGGPRGIS
B30: DOMAIN_17509 (protein, listed as Physeter macrocephalus)
chain: YQGLVSFEDVAVNFTWEEWQDLDAAQRTLYRDVMLENYSSLVSLGHCITKPEVIIKLEQGAAPWTVKETPDQGSPDVQIVD
B31: DOMAIN_17236 (protein, listed as Rhinolophus ferrumequinum)
chain: WKEELSFEDVAVNFTREEWNKLDWTQRDLYRDVMLENYRNMILLGFQFPKPEVICQLEQWEDPWILDLPRAGTRKASSNAC
B32: DOMAIN_17714 (protein, listed as Monodelphis domestica)
chain: FQGLVTFQDVAVIFSLDEWGHLDPAQRELYREVMLENYQTLACLGLAVSKPDVIAQLEQGGAPWKLEKDIPASPCPGEQYV
B33: DOMAIN_28640 (protein, listed as Colinus virginianus)
chain: GEEPVNFEEVAVYFSREEWALLDPAQRALYRDVMLETYECVASLAPLPAPKPMVISLLEEGEEPWIPDVGSPEAVAGDVSP
B34: DOMAIN_28803 (protein, listed as Monodelphis domestica)
chain: SQESVTFQDVTVDFTQEEWCMLDCSQKKLYREVMLENVQNLLSVGLPVPRENLLSSCQQGDSPWLLEQKGTRIFRADAEIC
B35: DOMAIN_30661 (protein, listed as Physeter macrocephalus)
chain: VTFEDVAVNFTLEEWALLDPSQKKLYRDVMRETLRNLASVGEKWEDHDIEDQYKNQGRKLRSHVLERLCESKEGSQCGENFSLIPNL

Residue numbers refer to the chain shown, from its start.

The first assay relates to HBEGF locus. Format: cell-based, human. The settings on record: high-throughput screen of dXR repression of the HBEGF gene; abundance of each domain in the library before and after diphtheria toxin selection; HEK293T cells.
With B1, the “Log2 (fold change)” value is reported as 4.0326.

With B2, the “Log2 (fold change)” value was 3.2446.

Regarding B3, the “Log2 (fold change)” value amounted to 2.953.

With B4, the “Log2 (fold change)” value was found to be 2.6589.

B5: the “Log2 (fold change)” value amounted to 3.4893.

Regarding B6, the “Log2 (fold change)” value was found to be 3.3129.

Turning to B7, the “Log2 (fold change)” value was found to be 3.4898.

Regarding B8, the “Log2 (fold change)” value was 2.4499.

For the molecule B9, the “Log2 (fold change)” value is 2.8765.

Take B10: the “Log2 (fold change)” value was 3.1536.

As to B11, the “Log2 (fold change)” value was found to be 3.1047.

B12: the “Log2 (fold change)” value was 3.2594.

With B13, the “Log2 (fold change)” value is given as 2.637.

In the case of B14, the “Log2 (fold change)” value is 3.2541.

On to B15, for which the “Log2 (fold change)” value is recorded as 3.1523.

Take B16: the “Log2 (fold change)” value amounted to 3.4986.

With B17, the “Log2 (fold change)” value is recorded as 2.2217.

Regarding B18, the “Log2 (fold change)” value stood at 2.9442.

With B19, the “Log2 (fold change)” value is reported as 2.1759.

On to B20, for which the “Log2 (fold change)” value stood at 3.0937.

Consider B21, for which the “Log2 (fold change)” value turned out to be 3.591.

In the case of B22, the “Log2 (fold change)” value stood at 3.0918.

Take B23: the “Log2 (fold change)” value is 3.5742.

Consider B24, for which the “Log2 (fold change)” value stood at 3.3689.

B25: the “Log2 (fold change)” value worked out at 2.7612.

With B26, the “Log2 (fold change)” value is on record as 3.2502.

Turning to B27, the “Log2 (fold change)” value came out at 3.8781.

On to B28, for which the “Log2 (fold change)” value was 4.9319.

Consider B29, for which the “Log2 (fold change)” value stood at 3.2455.

As for B30, the “Log2 (fold change)” value came out at 3.438.

On to B31, for which the “Log2 (fold change)” value came to 2.7166.

For B32, the “Log2 (fold change)” value is on record as 2.2724.

Staying with this assay, now noted: high-throughput screen of dXR repression of the HBEGF gene; change in abundance of each domain in the library before and after diphtheria toxin selection.
Take B33: the “Log2 (fold change)” value is 3.624.

Consider B34, for which the “Log2 (fold change)” value was found to be 3.0697.

Take B35: the “Log2 (fold change)” value amounted to 2.15.
